Drawing on paper PMC9911399, “Two distinct binding modes provide the RNA-binding protein RbFox with extraordinary sequence specificity”, this text covers binding signal for 31 molecules.

Positions count from the first letter of the chain named. This is one part of the list.

T1: RBFOX1 RRM RbFoxmut (Fox-RRM*) (Homo sapiens, UniProt Q9NWB1 109-208, R118D;E147R;N151S;E152T)
T1 sequence: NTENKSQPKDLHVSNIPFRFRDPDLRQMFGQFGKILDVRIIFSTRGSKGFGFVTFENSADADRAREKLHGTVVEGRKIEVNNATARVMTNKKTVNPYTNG

B1: GAUGAGC (DNA:RNA)
RNA: GGGAGACCGGAAUUCAGAUUGUCCGAUGAGCUUAAAUCCCGUCGUAGCCACCA
DNA 1: CAATCTGAATTCCGGTCTCCC
DNA 2: TGGTGGCTACGACGGGATT
B2: AUAAUGG (DNA:RNA)
RNA: B1 RNA with G25A, A26U, U27A, G28A, A29U, C31G
DNA 1: CAATCTGAATTCCGGTCTCCC
DNA 2: TGGTGGCTACGACGGGATT
B3: AUUCGGA (DNA:RNA)
RNA: B1 RNA with G25A, A26U, G28C, A29G, C31A
DNA 1: CAATCTGAATTCCGGTCTCCC
DNA 2: TGGTGGCTACGACGGGATT
B4: AGUCGCG (DNA:RNA)
RNA: B1 RNA with G25A, A26G, G28C, A29G, G30C, C31G
DNA 1: CAATCTGAATTCCGGTCTCCC
DNA 2: TGGTGGCTACGACGGGATT
B5: ACCUGAC (DNA:RNA)
RNA: B1 RNA with G25A, A26C, U27C, G28U, A29G, G30A
DNA 1: CAATCTGAATTCCGGTCTCCC
DNA 2: TGGTGGCTACGACGGGATT
B6: CCGGAAC (DNA:RNA)
RNA: B1 RNA with G25C, A26C, U27G, G30A
DNA 1: CAATCTGAATTCCGGTCTCCC
DNA 2: TGGTGGCTACGACGGGATT
B7: GAUGAAC (DNA:RNA)
RNA: B1 RNA with G30A
DNA 1: CAATCTGAATTCCGGTCTCCC
DNA 2: TGGTGGCTACGACGGGATT
B8: GGGACCC (DNA:RNA)
RNA: B1 RNA with A26G, U27G, G28A, A29C, G30C
DNA 1: CAATCTGAATTCCGGTCTCCC
DNA 2: TGGTGGCTACGACGGGATT
B9: UAUAGCG (DNA:RNA)
RNA: B1 RNA with G25U, G28A, A29G, G30C, C31G
DNA 1: CAATCTGAATTCCGGTCTCCC
DNA 2: TGGTGGCTACGACGGGATT
B10: AUGGAAG (DNA:RNA)
RNA: B1 RNA with G25A, A26U, U27G, G30A, C31G
DNA 1: CAATCTGAATTCCGGTCTCCC
DNA 2: TGGTGGCTACGACGGGATT
B11: AACGUUU (DNA:RNA)
RNA: B1 RNA with G25A, U27C, A29U, G30U, C31U
DNA 1: CAATCTGAATTCCGGTCTCCC
DNA 2: TGGTGGCTACGACGGGATT
B12: UGGCUCU (DNA:RNA)
RNA: GGGAGACCGGAAUUCAGAUUGUCCUGGCUCUUUAAAUCCCGUCGUAGCCACCA
DNA 1: CAATCTGAATTCCGGTCTCCC
DNA 2: TGGTGGCTACGACGGGATT
B13: UCCCACA (DNA:RNA)
RNA: B12 RNA with G26C, G27C, U29A, U31A
DNA 1: CAATCTGAATTCCGGTCTCCC
DNA 2: TGGTGGCTACGACGGGATT
B14: GGCAUGC (DNA:RNA)
RNA: B1 RNA with A26G, U27C, G28A, A29U
DNA 1: CAATCTGAATTCCGGTCTCCC
DNA 2: TGGTGGCTACGACGGGATT
B15: UGCCAGC (DNA:RNA)
RNA: B1 RNA with G25U, A26G, U27C, G28C
DNA 1: CAATCTGAATTCCGGTCTCCC
DNA 2: TGGTGGCTACGACGGGATT
B16: AAAGCCU (DNA:RNA)
RNA: B1 RNA with G25A, U27A, A29C, G30C, C31U
DNA 1: CAATCTGAATTCCGGTCTCCC
DNA 2: TGGTGGCTACGACGGGATT
B17: AACUUAU (DNA:RNA)
RNA: B12 RNA with U25A, G26A, G27C, C28U, C30A
DNA 1: CAATCTGAATTCCGGTCTCCC
DNA 2: TGGTGGCTACGACGGGATT
B18: AACGAUC (DNA:RNA)
RNA: B1 RNA with G25A, U27C, G30U
DNA 1: CAATCTGAATTCCGGTCTCCC
DNA 2: TGGTGGCTACGACGGGATT
B19: UAAAGCG (DNA:RNA)
RNA: B12 RNA with G26A, G27A, C28A, U29G, U31G
DNA 1: CAATCTGAATTCCGGTCTCCC
DNA 2: TGGTGGCTACGACGGGATT
B20: UAGAUGU (DNA:RNA)
RNA: B12 RNA with G26A, C28A, C30G
DNA 1: CAATCTGAATTCCGGTCTCCC
DNA 2: TGGTGGCTACGACGGGATT
B21: UUUUGCC (DNA:RNA)
RNA: B1 RNA with G25U, A26U, G28U, A29G, G30C
DNA 1: CAATCTGAATTCCGGTCTCCC
DNA 2: TGGTGGCTACGACGGGATT
B22: UAGAGUG (DNA:RNA)
RNA: B12 RNA with G26A, C28A, U29G, C30U, U31G
DNA 1: CAATCTGAATTCCGGTCTCCC
DNA 2: TGGTGGCTACGACGGGATT
B23: ACGAAAA (DNA:RNA)
RNA: B1 RNA with G25A, A26C, U27G, G28A, G30A, C31A
DNA 1: CAATCTGAATTCCGGTCTCCC
DNA 2: TGGTGGCTACGACGGGATT
B24: GGUGACA (DNA:RNA)
RNA: B1 RNA with A26G, G30C, C31A
DNA 1: CAATCTGAATTCCGGTCTCCC
DNA 2: TGGTGGCTACGACGGGATT
B25: UUGCCGC (DNA:RNA)
RNA: B12 RNA with G26U, U29C, C30G, U31C
DNA 1: CAATCTGAATTCCGGTCTCCC
DNA 2: TGGTGGCTACGACGGGATT
B26: CCUCUGG (DNA:RNA)
RNA: B1 RNA with G25C, A26C, G28C, A29U, C31G
DNA 1: CAATCTGAATTCCGGTCTCCC
DNA 2: TGGTGGCTACGACGGGATT
B27: CCCACUC (DNA:RNA)
RNA: B1 RNA with G25C, A26C, U27C, G28A, A29C, G30U
DNA 1: CAATCTGAATTCCGGTCTCCC
DNA 2: TGGTGGCTACGACGGGATT
B28: GAACACU (DNA:RNA)
RNA: B1 RNA with U27A, G28C, G30C, C31U
DNA 1: CAATCTGAATTCCGGTCTCCC
DNA 2: TGGTGGCTACGACGGGATT
B29: GAGUGUC (DNA:RNA)
RNA: B1 RNA with U27G, G28U, A29G, G30U
DNA 1: CAATCTGAATTCCGGTCTCCC
DNA 2: TGGTGGCTACGACGGGATT
B30: GUCAUCA (DNA:RNA)
RNA: B12 RNA with U25G, G26U, G27C, C28A, U31A
DNA 1: CAATCTGAATTCCGGTCTCCC
DNA 2: TGGTGGCTACGACGGGATT
B31: ACGCAGU (DNA:RNA)
RNA: B12 RNA with U25A, G26C, U29A, C30G
DNA 1: CAATCTGAATTCCGGTCTCCC
DNA 2: TGGTGGCTACGACGGGATT

The target of this test is T1, RBFOX1 RRM RbFoxmut (Fox-RRM*). Kind of test: EMSA; HiTS-Eq, 1 nM pool, 10 min; buffer printed only for the single-RNA assays: 10 mM Tris pH 7.5, 150 mM NaCl, 3.4 mM EDTA, 0.001% NP-40, 30 C. To be noted: tags: His6 N-terminal (pET28a); label: 5' 32P. A digest of the protocol: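 Purified RbFox RRM, wild type or mutant, was incubated for 10 min in 50 µL with 1 nM of a 5′-radiolabelled RNA pool carrying 7 randomized nucleotides, whose flanks were annealed to DNA oligonucleotides, over a series of increasing protein concentrations. Unbound RNA was resolved on 8% native PAGE, cut out, reverse-transcribed, barcoded by PCR and sequenced on an Illumina HiSeq 2500. Relative association constants were derived from changes in read counts for each RNA species versus the control reaction and normalised to the cognate motif.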
In the case of B1, the binding signal is 0.1 KA relative to UGCAUGU.

Turning to B2, the binding signal is 0.0842 KA relative to UGCAUGU.

Regarding B3, the binding signal is 0.0673 KA relative to UGCAUGU.

For the molecule B4, the binding signal is 0.117 KA relative to UGCAUGU.

Regarding B5, the binding signal was 0.139 KA relative to UGCAUGU.

In the case of B6, the binding signal was 0.0527 KA relative to UGCAUGU.

As to B7, the binding signal is 0.073 KA relative to UGCAUGU.

As to B8, the binding signal was 0.102 KA relative to UGCAUGU.

For B9, the binding signal is 0.0935 KA relative to UGCAUGU.

For B10, the binding signal is 0.149 KA relative to UGCAUGU.

For the molecule B11, the binding signal is 0.104 KA relative to UGCAUGU.

For B12, the binding signal is 0.0987 KA relative to UGCAUGU.

Regarding B13, the binding signal was 0.106 KA relative to UGCAUGU.

For the molecule B14, the binding signal was 0.739 KA relative to UGCAUGU.

Regarding B15, the binding signal is 0.0934 KA relative to UGCAUGU.

For the molecule B16, the binding signal was 0.0705 KA relative to UGCAUGU.

With B17, the binding signal is 0.12 KA relative to UGCAUGU.

With B18, the binding signal is 0.0355 KA relative to UGCAUGU.

In the case of B19, the binding signal was 0.0985 KA relative to UGCAUGU.

B20: the binding signal was 0.0901 KA relative to UGCAUGU.

Consider B21, for which the binding signal is 0.263 KA relative to UGCAUGU.

As for B22, the binding signal is 0.163 KA relative to UGCAUGU.

On to B23, for which the binding signal was 0.073 KA relative to UGCAUGU.

Regarding B24, the binding signal was 0.0642 KA relative to UGCAUGU.

In the case of B25, the binding signal was 0.0955 KA relative to UGCAUGU.

For the molecule B26, the binding signal is 0.0868 KA relative to UGCAUGU.

As for B27, the binding signal was 0.0625 KA relative to UGCAUGU.

As for B28, the binding signal was 0.0777 KA relative to UGCAUGU.

For the molecule B29, the binding signal is 0.199 KA relative to UGCAUGU.

As to B30, the binding signal is 0.129 KA relative to UGCAUGU.

B31: the binding signal is 0.0815 KA relative to UGCAUGU.
